According to patent US20210054071A1 (NANJING LEGEND BIOTECH, published 2021):
Like-named read-outs stand apart in the source and are kept apart here. Blank lines part the entries; values can stand above or below the binder they belong to.

How the values were obtained:
[1] = biological target: T1, human TIGIT expressed on CHO-K1 cells (human, UniProt Q495A1 22-244); test: FACS, CHO-K1 cells expressing human TIGIT
T1 construct: also called CHO/human TIGIT cells; CHO-TIGIT cells
T1 sequence: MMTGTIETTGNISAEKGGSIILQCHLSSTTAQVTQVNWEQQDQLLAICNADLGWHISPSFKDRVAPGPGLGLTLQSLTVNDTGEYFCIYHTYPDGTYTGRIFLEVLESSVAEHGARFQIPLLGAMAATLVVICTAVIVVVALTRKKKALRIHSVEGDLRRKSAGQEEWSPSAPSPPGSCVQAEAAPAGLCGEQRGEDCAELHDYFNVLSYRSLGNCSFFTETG

[2] = biological target: T2, cynomolgus TIGIT-His protein (Acrobiosystems) (cynomolgus, UniProt A0A7N9I9V4 89-209); test: SPR (BIAcore T200), target amine-coupled to CM5 chip
T2 construct: bought

[3] = biological target: T3, mouse TIGIT-His protein (Acrobiosystems) (mouse, UniProt P86176 29-148, limits assumed); test: as above
T3 construct: bought
T3 sequence (looked up): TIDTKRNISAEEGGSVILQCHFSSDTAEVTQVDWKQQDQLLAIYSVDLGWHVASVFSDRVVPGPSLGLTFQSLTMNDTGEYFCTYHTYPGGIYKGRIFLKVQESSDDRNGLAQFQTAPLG

[4] = biological target: T4, cynomolgus TIGIT expressed on CHO-K1 cells (cynomolgus, UniProt A0A7N9I9V4 89-312); test: FACS, CHO-K1 cells expressing cynomolgus TIGIT
T4 construct: whole, on cells

[5] = biological target: T2, cynomolgus TIGIT-His protein …; test: SPR (BIAcore T200), target amine-coupled to CM5 chip; remark: listed apart in the source
[6] = biological target: T3, mouse TIGIT-His protein (Acrobiosystems); test: as above; remark: listed apart in the source
[7] = biological target: T4, cynomolgus TIGIT expressed on CHO-K1 …; test: FACS, CHO-K1 cells expressing cynomolgus TIGIT; remark: listed apart in the source
[8] = biological target: T3, mouse TIGIT-His protein (Acrobiosystems); test: SPR as in Example 2
[9] = biological target: T5, murine TIGIT expressed on CHO-K1 cells (murine, UniProt P86176 29-249); test: FACS, CHO-K1 cells expressing murine TIGIT
T5 construct: whole, on cells; also called CHO/mouse TIGIT; mouse TIGIT expressed on CHO cells
T5 sequence (looked up): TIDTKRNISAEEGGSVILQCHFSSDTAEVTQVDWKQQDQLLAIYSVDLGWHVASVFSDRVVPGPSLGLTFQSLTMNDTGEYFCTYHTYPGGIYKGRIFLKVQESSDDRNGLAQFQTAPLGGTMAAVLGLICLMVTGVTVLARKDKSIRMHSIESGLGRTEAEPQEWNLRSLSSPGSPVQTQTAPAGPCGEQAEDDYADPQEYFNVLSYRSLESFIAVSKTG

EC50 [1]: 1 nM
B4: AS19888 sdAb-Fc (IgG1) fusion protein (Fc fusion)
chain: QVQLAESGGGSVQTGGSLRLSCEASGVAASGYCMAWFRQAPGKERERVAAISSNDLVAYADSVKGRFTISKDNAKTTLYLQMNNLKPEDTAMYYCAADGGYGGYCGRLRPGTGYWGQGTQVTVSS[human IgG1 Fc not written out]
notes: dimeric form, human IgG1 Fc; also called AS19888-Fc

EC50 [1]: 0.497 nM
B5: AS19887 sdAb-Fc (IgG1) fusion protein (Fc fusion)
chain: QVQLAESGGGSVQAGGSLRLSCAASGVTSDSYHMGWFRQAPGKEREGVAVIKTGDASTYYTDSVKGRFTISQDNAKNTLYLQMNSLKPEDTAMYYCAARRGWVPAPLSQYNYNYWGQGTQVTVSS[human IgG1 Fc not written out]
notes: dimeric form, human IgG1 Fc; also called AS19887-Fc

Continued, binder first:

B1: AS19852 sdAb-Fc (IgG1) fusion protein (Fc fusion)
chain: QVQLAESGGGSVQTGGSLRLSCAASGNTGSRRYVAWFRQAPGKEREGVARLITDSGSTYYADSVKGRFIISQDNAKNTVYLQMNTLKPEDTAMYYCAEELAPARSGGIWFGGRYFSYWGQGTQVTVSS[human IgG1 Fc not written out]
notes: dimeric form, human IgG1 Fc; also called AS19852-Fc
EC50 [1]: 0.383 nM

B2: AS19584 sdAb-Fc (IgG1) fusion protein (Fc fusion)
chain: QVQLAESGGGSVQAGGSLRLSCAASGYKYGVYSMGWFRLAPGKEREGVAAICSGGRTTYSDSVKGRFTISKDSANQILYLQMNSLKPEDTAMYYCAARPLWTGDCDLSSSWYKTWGQGTQVTVSS[human IgG1 Fc not written out]
notes: unhumanized camel anti-TIGIT sdAb fused to human IgG1 Fc, dimeric form; also called AS19584-Fc; AS19584-Fc (IgG1)
Kd [2]: 38 nM | koff [2]: 0.017 s⁻¹ | kon [2]: 460000 M⁻¹ s⁻¹ | Kd [3]: 0.55 nM | kon [3]: 880000 M⁻¹ s⁻¹ | EC50 [4]: 0.664 nM | Kd [5]: 51 nM | koff [5]: 0.014 s⁻¹ | kon [5]: 270000 M⁻¹ s⁻¹ | Kd [6]: 0.5 nM | koff [6]: 0.00072 s⁻¹ | kon [6]: 1.4e+06 M⁻¹ s⁻¹ | EC50 [7]: 3.85 nM | Kd [8]: 0.57 nM | EC50 [9]: 0.806 nM

B3: AS19584 sdAb-Fc (inert IgG1) fusion protein (Fc fusion)
chain: QVQLAESGGGSVQAGGSLRLSCAASGYKYGVYSMGWFRLAPGKEREGVAAICSGGRTTYSDSVKGRFTISKDSANQILYLQMNSLKPEDTAMYYCAARPLWTGDCDLSSSWYKTWGQGTQVTVSS[human IgG1 Fc with changes not written out]
notes: effectorless human IgG1 Fc, dimeric form; also called AS19584-Fc (inert IgG1); AS19584 (inert IgG1)
Kd [8]: 0.71 nM

B6: AS19858 sdAb-Fc (IgG1) fusion protein (Fc fusion)
chain: QIQLVESGGGSVQAGGSLRLSCATSGYTYRQKCMGWFRQAPGKEREGVAAIYTSVGGSRTYVADSAKGRFTVSQDNAKNTVYLQMNSLKPEDTAMYYCAAKSPYDGACSYEADFTYWGQGTQVTVSS[human IgG1 Fc not written out]
notes: dimeric form, human IgG1 Fc; also called AS19858-Fc
EC50 [1]: 0.223 nM
